The list shows a part of the results.
molecular target: T1, OsWOX13 (Oryza sativa, UniProt Q5QMM3 1-267); assay: protein-binding microarray (RPBM); PBS, 2% BSA, 51.3 ng/ul salmon testes DNA, 50 uM zinc acetate, 200 nM TF, 25 C, 1 h; high values mean tight binding; settings: protein: recombinant; tags: N-terminal polyhistidine and DsRed monomer fusion (pET32a); label: CyDye5-dUTP incorporated in the synthesized complementary strand; 3' TTTTT single-stranded linker to array surface; dsDNA, one strand shown
T1 sequence: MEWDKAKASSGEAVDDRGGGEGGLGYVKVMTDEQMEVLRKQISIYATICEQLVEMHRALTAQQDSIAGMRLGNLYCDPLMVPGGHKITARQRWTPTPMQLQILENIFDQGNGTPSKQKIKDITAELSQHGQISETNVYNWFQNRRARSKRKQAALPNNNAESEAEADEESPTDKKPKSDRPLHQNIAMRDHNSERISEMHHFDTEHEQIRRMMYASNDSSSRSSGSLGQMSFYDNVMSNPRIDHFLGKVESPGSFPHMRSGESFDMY
Outline: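 An Axon 4000B scanner gave the binding signal as per-feature fluorescence intensity in arbitrary units. This followed washing of a custom Agilent array that had been incubated for 1 h at 25 °C with 200 nM protein in PBS, 2% BSA, salmon testes DNA and 50 µM zinc acetate. The proteins were transcription factors fused at the N-terminus to polyhistidine and DsRed, expressed in E. coli BL21-CodonPlus and purified on Ni–NTA.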

In order of rising binding signal:
1. CGTGACAGCCTCACACGCGGCGCCTCTCACCCGTCGCTACCGGAGTCACCTAGTGCAG  3210 fluorescence intensity (a.u.)
2. TCTCTTCCCAATCTACATTGCTAATTCCTCTCAATTGTATCGGAGTCACCTAGTGCAG  3220 fluorescence intensity (a.u.)
3. TACTATCAACTCTGTTAAAATTGAAGAATTTTGACTAAAACGGAGTCACCTAGTGCAG  3310 fluorescence intensity (a.u.)
4. AAGAGCATAATAGATTATATAACCCAAGGTACAGACTGCGCGGAGTCACCTAGTGCAG  3410 fluorescence intensity (a.u.)
5. TGATCAATTGATACTGCAATCAAGGAAGAACACCATAGCTCGGAGTCACCTAGTGCAG  3550 fluorescence intensity (a.u.)
6. CTTTTCAAACTGTTAAATGATAAATGATGTGTTTCGTACACGGAGTCACCTAGTGCAG  3580 fluorescence intensity (a.u.)
7. TTTAATCATAATTCTCTTATACATTGCGTATTAGAAAATTCGGAGTCACCTAGTGCAG  4370 fluorescence intensity (a.u.)
8. CCATTCCTGTGATAGCCCTTAATGATCAGTTAGCATGCATCGGAGTCACCTAGTGCAG  4450 fluorescence intensity (a.u.)
9. CACAGATCGATGGCTAATTAAACCATGCTCACACTGGCATCGGAGTCACCTAGTGCAG  4530 fluorescence intensity (a.u.)
10. TGAGTGTGATTTGCATGCACGGGAGGCTCAAACGAAGCCACGGAGTCACCTAGTGCAG  5620 fluorescence intensity (a.u.)
11. TTTACATAAATTACCCCTGACACCTAAGGGTGAGTTTGAGCGGAGTCACCTAGTGCAG  6540 fluorescence intensity (a.u.)
12. CACCATGCCAGATTGTTAATTACTCACGCACGAATTCCTACGGAGTCACCTAGTGCAG  6620 fluorescence intensity (a.u.)
13. GTCATGATCCTCGTAATTACACATTGCCATTCTTAGCAAACGGAGTCACCTAGTGCAG  6790 fluorescence intensity (a.u.)
14. GGGTTCAAATCTTTGATTTGACATAGATGTTCGAAGCGTTCGGAGTCACCTAGTGCAG  6850 fluorescence intensity (a.u.)
15. GTTTGATAGCATCTTTAACCGTACATTCATGAGATGCAGGCGGAGTCACCTAGTGCAG  7840 fluorescence intensity (a.u.)
16. GCACTAATCAAGATACTAGCTCATAGTACAATGGTCTGGTCGGAGTCACCTAGTGCAG  8510 fluorescence intensity (a.u.)
17. ACGTGGGGATTGATCTGGTATGTGCAGAGCTTGGAGGGGACGGAGTCACCTAGTGCAG  8560 fluorescence intensity (a.u.)
18. GGACAAACATAATTAGGAGAGACCGCCACTTTATCCATCACGGAGTCACCTAGTGCAG  11100 fluorescence intensity (a.u.)
19. AGTATCACTTTGATTAATTACTAACCCTACTAGTATCTCTCGGAGTCACCTAGTGCAG  11200 fluorescence intensity (a.u.)
20. TCGGAAATGATTTCTCCTCGTCCCGATTTGACCTCTGGTTCGGAGTCACCTAGTGCAG  11300 fluorescence intensity (a.u.)
21. TCTTAATTTCTCCAGACCAGCTACAAGCCTTCAACCACATCGGAGTCACCTAGTGCAG  11600 fluorescence intensity (a.u.)
22. TCCTGACAGGATGGGGCGAGGCGTGCGTCAGACCGCCTGTCGGAGTCACCTAGTGCAG  12000 fluorescence intensity (a.u.)
23. TCATCTGCACTAATTAAATAATTGACAACAAAAGAATGAACGGAGTCACCTAGTGCAG  12400 fluorescence intensity (a.u.)
24. ATGATTTGCTTCATGTTGTCTACTAATGTTATTACACGTACGGAGTCACCTAGTGCAG  14600 fluorescence intensity (a.u.)
25. TAAACATGATTTATCGATATGATAGGCTACTTAATTTCATCGGAGTCACCTAGTGCAG  14700 fluorescence intensity (a.u.)
26. AGTTGTGATTATTGTTTAACCTATTTCCCTGAAGAAATTCCGGAGTCACCTAGTGCAG  14800 fluorescence intensity (a.u.)
27. CTTTCTGTCAATTACTCAACCTTTGTTGCATAGCTTGATTCGGAGTCACCTAGTGCAG  15000 fluorescence intensity (a.u.)
28. ACTTGAAAATTTAAATTTTAGATGATAAGTACTCCCTCCGCGGAGTCACCTAGTGCAG  17600 fluorescence intensity (a.u.)
29. CTAATTAATCCGTCATTAGCAAATATTTACTGTAGCACCACGGAGTCACCTAGTGCAG  17700 fluorescence intensity (a.u.)
30. TGCTGGTTTGTTGATTGCTTTTATATCAAACTGGGAGCTACGGAGTCACCTAGTGCAG  17800 fluorescence intensity (a.u.)
31. CACAATCACAATTATAACCATTACAGATAATTACATCACTCGGAGTCACCTAGTGCAG  18300 fluorescence intensity (a.u.)
32. AAGTTAACATGATTAATTTGCTACTCCCTCCGTTTCACAACGGAGTCACCTAGTGCAG  18800 fluorescence intensity (a.u.)
33. TTTTCCATCAATCATCAAGATGAATATAATGTATATGACTCGGAGTCACCTAGTGCAG  25300 fluorescence intensity (a.u.)
34. ACCAGATTAGCTATAACTTTTCAATTAACTATTCCCTAATCGGAGTCACCTAGTGCAG  25700 fluorescence intensity (a.u.)
35. ACACATGATTAATCTAATTTTAATTATTACAAACTTAAATCGGAGTCACCTAGTGCAG  28500 fluorescence intensity (a.u.)
36. CCTAATTATTCTTCTTAAGTACATTCTTTCCTTGTCATTACGGAGTCACCTAGTGCAG  29200 fluorescence intensity (a.u.)
37. ACCCTCATCTCTTCTCCTGATTGAATTGTCTTCCTCAACCCGGAGTCACCTAGTGCAG  30400 fluorescence intensity (a.u.)
38. CATTTTAATTGACGCTTTGGACAATGACACGCTCTACAAGCGGAGTCACCTAGTGCAG  32200 fluorescence intensity (a.u.)
39. CTCCTTAATTTACTTATTTGTCTTTAATTGGTTCTCGCACCGGAGTCACCTAGTGCAG  33700 fluorescence intensity (a.u.)
40. TCCTAAATGGATTGGCCATTTTCCCCTTCGACTATGTGAGCGGAGTCACCTAGTGCAG  39900 fluorescence intensity (a.u.)
41. TTAATCATAATTTGTGCTAATTAGTAATCTTCATTTGTTTCGGAGTCACCTAGTGCAG  46700 fluorescence intensity (a.u.)
42. CAAATTTATAATAATTAAAATTTAATTAATTATGTGTTAACGGAGTCACCTAGTGCAG  57700 fluorescence intensity (a.u.)

From publication PMC7819943, “Rice protein-binding microarrays: a tool to detect cis-acting elements near promoter regions in rice”
